# Experimental data as given in publication PMC3589414, “Regulation of ASPP2 Interaction with p53 Core Domain by an Intramolecular Autoinhibitory Mechanism” (PLoS ONE, 2013).
# B1: p53 core domain (p53 […]) (domain or fragment)
# chain: not shown
# notes: No tag is named; the purification used ion exchange, heparin and gel filtration only; also called p53CD; p53CD […]; source: E. coli C41 (DE3), purified (HiTrap SP cation exchange, HiTrap heparin, Superdex 75 gel filtration)
# Assays:
# [1] = molecular target: T1, ASPP2 Ank-SH3 (ASPP2 893–1128) (UniProt Q13625 893-1128); assay: fluorescence polarisation; fluorescence anisotropy competition; p53CD added to a mixture of 83 nM Fl-ASPP2 722–737 and 8.3 µM ASPP2 Ank-SH3; 20 mM Hepes pH 7.0, IS = 50 mM, 5 mM βME; conditions: both partners purified
# T1 construct: ASPP2, four ankyrin repeats and SH3 domain, residues 893-1128
# T1 sequence (looked up): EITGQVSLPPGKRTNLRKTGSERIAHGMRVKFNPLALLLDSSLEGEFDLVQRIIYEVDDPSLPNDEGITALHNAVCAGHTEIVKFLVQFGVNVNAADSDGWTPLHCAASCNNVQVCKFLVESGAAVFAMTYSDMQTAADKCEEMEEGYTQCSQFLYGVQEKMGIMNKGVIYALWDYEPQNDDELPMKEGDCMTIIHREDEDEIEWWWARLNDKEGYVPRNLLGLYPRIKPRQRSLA
# [2] = molecular target: T1, ASPP2 Ank-SH3 (ASPP2 893–1128); assay: fluorescence polarisation; fluorescence anisotropy competition; p53CD titrated into the fully formed complex of ASPP2 Ank-SH3 and Fl-NFκB 303–332; IS = 150 mM; conditions: both partners purified
binder,measurement,setting,value
B1,Kd,[1],470 nM
same,Kd,[2],2450 nM
